# Source: PubChem BioAssay (NCATS)
# Inconclusive results, whose numbers are uncertain, are shown with a selection of clear calls. For some assays here: Potencies of inconclusive entries are left out as doubtful fits. For some assays here: “Side channel” marks fits to a control or component signal instead of the main read-out. Calls of active or inactive are those of the source. Unless noted, calls follow the shape of the dose curve; as a rule, active = well fitted curve in the direction sought with a large enough effect; inconclusive = small, poorly fitted or top-dose-only effect, or another doubt; inactive = no such curve, though single readings can be large; an effect the other way counts as inactive or inconclusive.
# Key:
# [1] = tested on: Zika virus NS2B-NS3 protease; experiment: Primary screen GU AMC qHTS for Zika virus inhibitors (AID 1347154); also: potency is read from the fitted curve at half-maximal effect; nearly all actives have a fitted effect of over 70% in size
# How it was run: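 Fluorogenic AMC-substrate cleavage by noncovalent NS2B-NS3 protease complex (25 nM, pH 8.0 Tris buffer with Tween 20) followed for 15 minutes at room temperature (~20% conversion). Percent inhibition from ex340/em450 signal change, fitted by 4-parameter Hill equation.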
# [2] = Primary qHTS for small molecule stabilizers of the endoplasmic reticulum resident proteome: Secreted ER Calcium Modulated Protein (SERCaMP) assay (AID 1508630); conditions: SH-SY5Y GLuc-SERCaMP (Gaussia luciferase released on ER calcium loss) secretion, thapsigargin, luminescence; activity change, negative = inhibition: at 38.4 µM (top of the series) unless noted; also: potency is read from the fitted curve at half-maximal effect
# How it was run: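 The SH-SY5Y reporter protocol was run at 3 concentrations up to 38.3 uM (primary) or 11 concentrations (follow-up): 16 h compound, 100 nM thapsigargin for 4 h, then extracellular luciferase luminescence.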
# [3] = target: 3',5'-cyclic-AMP phosphodiesterase 4B (Homo sapiens) (UniProt Q07343); experiment: qHTS Assay for Inhibitors of PDE-IV (AID 607; active = well fitted activation curve with a large enough effect in the main read-out, with a control signal flat, not every such curve was filed as active; inconclusive = small, poorly fitted or top-dose-only effect, or effect the other way, or a change in a side signal; also: % of control where 0% means no effect); conditions: HEK293 ACTOne CNG channel cells, membrane potential fluorescence; activation (PDE inhibition): at 22.9 µM (top of the series)
# How it was run: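 HEK293 ACTOne cells with CNG channel (1000/well), endogenous PDE4; membrane potential dye, compounds up to 22.9 uM final. Fluorescence Ex 535/Em 590; RO 20-1724 (100 uM final) as reference.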
# [4] = qHTS Assay for Identification of Small Molecule Antagonists for NFkB Signaling Pathway (AID 895; active = well fitted inhibition curve with a large enough effect in the signal ratio, with a control signal flat, not every such curve was filed as active; inconclusive = small, poorly fitted or top-dose-only effect, or effect the other way, or a change in a side signal; the % refers to the signal ratio; also: % is scaled to controls: 0 for no effect and ±100 for the full control effect); conditions: NFkB beta-lactamase reporter cells, FRET ratio 460/530, stimulated with 10 pM TNF alpha; activity change, negative = inhibition: at 38.3 µM (top of the series)
# How it was run: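 Beta-lactamase reporter read-out (460 and 530 nm emission ratio, 405 nm excitation, 2 hrs substrate loading RT) after 5 hr stimulation with 10 pM TNF alpha in compound-treated NFkB-bla ME-180 cells in low-serum medium.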
# [5] = qHTS Assay for Identification of Small Molecule Antagonists for Thrombopoietin (TPO) Signaling Pathway (AID 918); conditions: TPO-dependent cell signaling reporter, antagonist mode; activity change, negative = inhibition: at 38.5 µM (top of the series); also: nearly all actives have a fitted effect of over 60% in size
# How it was run: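 Inhibition read as reduced luciferase luminescence after 24 h at 37 C in IL-3-deprived Ba/F3 cells carrying human TPO receptor and GPIIb-promoter reporter, stimulated with 26 pM TPO (final, its EC50) alongside compound.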
# [6] = target: Muscarinic acetylcholine receptor M1 (Rattus norvegicus) (UniProt P08482); experiment: qHTS Assay for Antagonists of Acetylcholine Muscarinic M1 Receptor: Measurement of IP-One Response (AID 944); also: potency is read from the fitted curve at half-maximal effect; nearly all actives have a fitted effect of over 75% in size
# [7] = qHTS for differential inhibitors of proliferation of Plasmodium falciparum line 7G8 (AID 1815);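 also: parasite growth measured after three days of incubation; plate controls were vehicle wells for no effect and reference inhibitor wells for full effect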
# [8] = qHTS for differential inhibitors of proliferation of Plasmodium falciparum line D10 (AID 1877);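 also: parasites grown with compound for 72 h before DNA staining; plate controls were vehicle wells for no effect and reference inhibitor wells for full effect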
# [9] = qHTS for differential inhibitors of proliferation of Plasmodium falciparum line W2 (AID 1883); conditions: Potency: Plasmodium falciparum W2 proliferation inhibition;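 also: parasites grown with compound for 72 h before lysis and staining; 0% = vehicle wells and -100% = control inhibitor wells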
# [10] = qHTS for differential inhibitors of proliferation of Plasmodium falciparum line HB3 (AID 1886); conditions: Potency: Plasmodium falciparum HB3 proliferation inhibition;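 also: parasites grown with compound for 72 h before SYBR Green readout; plate controls were vehicle for no effect and reference inhibitor for full effect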
# [11] = qHTS Assay for Modulators of Human Peripheral Myelin Protein 22 (PMP22) Expression/Activity (AID 1967; active = well fitted curve in the direction sought with a large enough effect in the signal ratio; inconclusive = small, poorly fitted or top-dose-only effect, or effect the other way, or a change in a side signal; inactive = no such curve, though single readings can be large or run the other way; the % refers to the signal ratio;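 also: 0% = untreated cells and 100% end not stated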); conditions: Cell-based PMP22 reporter, dual-color luciferase ratio, mouse Pmp22 promoter in mouse Schwann cells; activity change (ratio): at 115 µM (top of the series), 0% = compound-free control cells
# How it was run: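 Readout is the corrected green/red luminescence ratio after 24 h compound exposure, normalised to untreated cells (0%). Engineered MSC80 mouse Schwann cells express green luciferase from the mouse Pmp22 promoter and red luciferase from EF-alpha as internal control.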
# [12] = target: RecQ-like DNA helicase BLM (Homo sapiens) (UniProt P54132); experiment: qHTS Validation Assay for Inhibitors of Bloom's syndrome helicase (BLM) (AID 2364); also: potency is read from the fitted curve at half-maximal effect
# How it was run: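 Forked 20-bp duplex substrate (200 nM, TAMRA/BHQ-2) plus 2 mM ATP added after 15 min compound preincubation with 50 nM enzyme, pH 8.0, poly(dI-dC) 2.5 ug/ml. Strand separation followed by fluorescence (525/598 nm) over 2 h, normalized to enzyme-free and DMSO controls.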
# [13] = target: ATP-dependent 6-phosphofructokinase (Trypanosoma brucei brucei) (UniProt O15648); experiment: qHTS Validation Assay to Find Inhibitors of T. brucei phosphofructokinase (AID 485368); also: potency is read from the fitted curve at half-maximal effect
# How it was run: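 Luminescent ADP detection measures PFK turnover of fructose-6-phosphate (0.5 mM) with ATP (0.1 mM) at pH 8.0. Reaction runs 45 min at room temperature with 1.25 nM enzyme; inhibitors tested as titrations up to 57 uM.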
# [14] = Quantitative high throughput screen for delayed death inhibitors of the malarial parasite plastid, 48 hour incubation (AID 488752); also: % is scaled to controls: 0 for no effect and ±100 for the full control effect; nearly all actives have a fitted effect of over 65% in size
# How it was run: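 One-generation (48 h) growth assay: a decrease in luciferase signal from an integrated reporter in P. falciparum-infected red cells (0.1% parasitemia, 2% hematocrit) after compound exposure at 37 C indicates parasite inhibition.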
# [15] = target: Chromobox protein homolog 1 (Homo sapiens) (UniProt P83916); experiment: qHTS Validation Assay for Inhibitors of HP1-beta Chromodomain Interactions with Methylated Histone Tails (AID 488953); also: potency is read from the fitted curve at half-maximal effect; nearly all actives have a fitted effect of over 50% in size
# How it was run: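 AlphaScreen proximity signal from streptavidin donor and nickel chelate acceptor beads (final 10 ug/mL) after 30 min dark incubation. Compounds had 30 min at room temperature with preformed complex of 50 nM HP1-beta and 50 nM b-H3(1-18)K9me3 in PBS pH 7.4 with 0.01% Tween-20.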
# [16] = target: D(1A) dopamine receptor (Homo sapiens) (UniProt P21728); experiment: HTS Assay for Allosteric Agonists of the Human D1 Dopamine Receptor: Primary Screen for Potentiators (AID 488982); also: potency is read from the fitted curve at half-maximal effect
# How it was run: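 Calcium flux in an inducible, force-coupled HEK293 Trex D1 line (overnight at 30 C): agonist mode is the 180 s kinetic read after compound; potentiator mode is the following 180 s read after dopamine at EC20.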
# [17] = target: ATPase family AAA domain-containing protein 5 (Homo sapiens) (UniProt Q96QE3); experiment: Validation screen for small molecules that inhibit ELG1-dependent DNA repair in human embryonic kidney (HEK293T) cells expressing luciferase-tagged ELG1 (AID 493107); conditions: HEK293T ELG1-luciferase level, luminescence, 5-fluorouridine co-treatment, 16 h; activity change, negative = decrease: at 46.1 µM (top of the series);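 also: % is scaled to controls: 0 for no effect and ±100 for the full control effect; inhibitors lower the ELG1-luciferase luminescence signal; nearly all actives have a fitted effect of over 70% in size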
# How it was run: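 Luciferase read-out, ONE-Glo, 30 min at room temperature, follows 16 h co-exposure at 37 C of compound and the DNA-damaging agent 5-fluorouridine. Cells: HEK293T with ELG1-luciferase fusion, 2,000 per well, DMSO as vehicle.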
# [18] = target: Peptidyl-prolyl cis-trans isomerase NIMA-interacting 1 (Homo sapiens) (UniProt Q13526); experiment: qHTS Validation Assay to Find Inhibitors of Pin1 (AID 504536; active = well fitted inhibition curve with a large enough effect in the polarisation, with a control signal flat, not every such curve was filed as active; inconclusive = small, poorly fitted or top-dose-only effect, or effect the other way; the % refers to the polarisation; also: potency is read from the fitted curve at half-maximal effect)
# How it was run: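 Fluorescence polarization competition: compounds (titration) displace HiFluor-488-labeled Pin1-1b peptide from Pin1 (0.3 uM final) in pH 7.5 HEPES buffer with DTT, 10 min at room temperature; %Activity normalized to no-enzyme wells, curves fitted.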
# [19] = qHTS for Inhibitors of ATXN expression: Validation of Cytotoxic Assay (AID 588349); also: potency is read from the fitted curve at half-maximal effect
# How it was run: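 Cytotoxicity counter-screen: ATP-based luminescent viability (CellTiter Glo) after 72 hr exposure of HEK293 cells to a compound titration at 37 degrees C.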
# [20] = target: Lysine-specific demethylase 5B (Homo sapiens) (UniProt Q9UGL1); experiment: Optimization screen for KDM5B Histone Demethylases FDH coupled qHTS against the LOPAC library (AID 1347166); conditions: KDM5B demethylation, FDH-coupled NADH fluorescence (FDH is formaldehyde dehydrogenase); activity, negative = inhibition: at 57.5 µM (top of the series) unless noted; also: 0% is about no effect
# How it was run: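 KDM5BDeltaAP (200nM final) in 50mM HEPES pH 7.5, 0.01% Tween-20 was preincubated with compound for 10 min at room temperature. A substrate mix of 12.5uM H3K4Me3, 25uM a-ketoglutarate, ascorbate, Fe2+, NAD+ and formaldehyde dehydrogenase was then added. NADH fluorescence (340/450 nm) was read initially and after 30 min.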
# [21] = target: Calcium and integrin-binding protein 1 (Homo sapiens) (UniProt Q99828); experiment: Validation qHTS for Identification of Calcium Integrin Binding protein 1 (CIB1) Competitor (AID 1508618); also: potency is read from the fitted curve at half-maximal effect
# How it was run: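 Fluorescence polarization with 1 uM CIB1-GST and 100 nM FITC-alphaIIb peptide in HEPES pH 7.4, NaCl, 5 mM CaCl2, Tween20. Compounds at up to 114 uM final, preincubated with protein 15 min; read after 15 min more at RT.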
# [22] = target: Papain (Carica papaya) (UniProt P00784); experiment: Primary qHTS assay for inhibitors of the protease papain (AID 1645873)
# Tags tell the direction and shape of the fitted curve or compound fluorescence and quenching.
# Sequence of UniProt O15648 (O15648 whole entry, looked up): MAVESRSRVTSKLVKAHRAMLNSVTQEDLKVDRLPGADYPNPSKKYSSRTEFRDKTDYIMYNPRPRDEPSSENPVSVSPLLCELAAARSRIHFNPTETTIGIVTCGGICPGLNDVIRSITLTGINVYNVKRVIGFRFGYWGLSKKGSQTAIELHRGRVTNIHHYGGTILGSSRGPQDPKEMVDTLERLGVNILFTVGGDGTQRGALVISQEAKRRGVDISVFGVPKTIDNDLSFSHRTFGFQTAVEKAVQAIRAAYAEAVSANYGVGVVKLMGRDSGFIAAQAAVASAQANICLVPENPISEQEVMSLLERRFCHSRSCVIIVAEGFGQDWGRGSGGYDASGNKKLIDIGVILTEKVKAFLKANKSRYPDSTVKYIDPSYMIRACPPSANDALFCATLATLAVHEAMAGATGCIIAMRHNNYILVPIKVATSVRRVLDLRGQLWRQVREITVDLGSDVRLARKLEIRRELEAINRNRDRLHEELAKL
# Sequence of UniProt P21728 (P21728 whole entry, looked up): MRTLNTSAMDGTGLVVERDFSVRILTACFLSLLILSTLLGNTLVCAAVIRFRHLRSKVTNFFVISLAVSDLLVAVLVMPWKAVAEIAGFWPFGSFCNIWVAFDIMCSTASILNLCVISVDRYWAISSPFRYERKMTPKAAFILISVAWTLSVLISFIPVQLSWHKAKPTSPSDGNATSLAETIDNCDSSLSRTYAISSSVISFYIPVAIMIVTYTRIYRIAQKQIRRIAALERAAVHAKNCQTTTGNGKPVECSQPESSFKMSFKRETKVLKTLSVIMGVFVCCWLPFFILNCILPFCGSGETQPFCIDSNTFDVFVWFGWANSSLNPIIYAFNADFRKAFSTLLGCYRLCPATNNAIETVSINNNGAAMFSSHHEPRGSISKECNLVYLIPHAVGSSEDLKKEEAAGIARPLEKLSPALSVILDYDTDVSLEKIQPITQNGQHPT
# Sequence of UniProt Q96QE3 (Q96QE3 whole entry, looked up, the tested form may be a part): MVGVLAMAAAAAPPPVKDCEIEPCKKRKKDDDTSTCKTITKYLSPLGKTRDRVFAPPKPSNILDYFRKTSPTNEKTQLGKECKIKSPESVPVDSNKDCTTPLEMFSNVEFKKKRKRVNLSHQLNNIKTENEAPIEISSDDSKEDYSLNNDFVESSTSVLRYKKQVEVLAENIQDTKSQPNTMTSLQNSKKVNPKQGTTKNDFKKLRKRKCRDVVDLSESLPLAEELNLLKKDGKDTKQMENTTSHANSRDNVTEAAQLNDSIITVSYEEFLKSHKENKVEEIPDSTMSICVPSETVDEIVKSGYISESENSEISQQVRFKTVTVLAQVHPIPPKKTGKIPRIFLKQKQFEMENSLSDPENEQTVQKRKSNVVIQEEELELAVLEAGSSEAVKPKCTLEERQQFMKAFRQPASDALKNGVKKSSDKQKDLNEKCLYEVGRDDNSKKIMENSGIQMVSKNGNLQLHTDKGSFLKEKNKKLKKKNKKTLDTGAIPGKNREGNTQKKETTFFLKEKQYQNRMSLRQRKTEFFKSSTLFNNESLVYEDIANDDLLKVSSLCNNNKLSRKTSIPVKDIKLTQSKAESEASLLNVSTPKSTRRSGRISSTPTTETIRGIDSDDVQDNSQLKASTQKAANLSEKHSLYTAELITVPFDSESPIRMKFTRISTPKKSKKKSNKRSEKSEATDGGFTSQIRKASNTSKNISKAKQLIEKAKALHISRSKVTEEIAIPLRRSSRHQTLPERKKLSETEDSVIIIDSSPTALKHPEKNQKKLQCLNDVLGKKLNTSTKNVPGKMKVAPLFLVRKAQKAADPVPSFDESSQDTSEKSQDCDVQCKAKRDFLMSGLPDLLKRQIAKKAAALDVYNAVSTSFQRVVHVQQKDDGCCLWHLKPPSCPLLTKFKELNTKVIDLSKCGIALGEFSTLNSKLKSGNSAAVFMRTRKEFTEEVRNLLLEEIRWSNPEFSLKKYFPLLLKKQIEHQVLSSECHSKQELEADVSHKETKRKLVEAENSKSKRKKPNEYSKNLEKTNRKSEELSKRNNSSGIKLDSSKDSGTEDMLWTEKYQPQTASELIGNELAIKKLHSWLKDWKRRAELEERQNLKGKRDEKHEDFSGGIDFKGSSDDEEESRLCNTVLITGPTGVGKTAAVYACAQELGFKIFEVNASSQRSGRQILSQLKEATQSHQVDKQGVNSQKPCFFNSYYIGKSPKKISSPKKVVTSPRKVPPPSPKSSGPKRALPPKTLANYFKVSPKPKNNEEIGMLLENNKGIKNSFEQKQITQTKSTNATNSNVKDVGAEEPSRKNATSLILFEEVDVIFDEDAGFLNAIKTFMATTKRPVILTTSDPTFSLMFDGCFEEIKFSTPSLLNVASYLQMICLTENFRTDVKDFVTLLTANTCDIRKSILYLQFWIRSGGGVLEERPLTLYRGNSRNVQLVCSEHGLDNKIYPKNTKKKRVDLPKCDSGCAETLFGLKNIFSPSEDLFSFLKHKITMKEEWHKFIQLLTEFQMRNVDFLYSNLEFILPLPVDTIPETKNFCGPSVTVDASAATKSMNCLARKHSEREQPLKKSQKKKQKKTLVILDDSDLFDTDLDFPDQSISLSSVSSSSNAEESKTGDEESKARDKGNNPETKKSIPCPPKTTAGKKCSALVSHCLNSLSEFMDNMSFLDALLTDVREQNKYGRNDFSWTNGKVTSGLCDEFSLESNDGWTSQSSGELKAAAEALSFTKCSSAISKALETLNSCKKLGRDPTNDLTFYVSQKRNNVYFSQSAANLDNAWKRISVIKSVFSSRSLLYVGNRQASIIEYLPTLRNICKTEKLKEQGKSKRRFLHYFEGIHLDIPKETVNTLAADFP
# Sequence of UniProt P08482 (P08482 whole entry, looked up): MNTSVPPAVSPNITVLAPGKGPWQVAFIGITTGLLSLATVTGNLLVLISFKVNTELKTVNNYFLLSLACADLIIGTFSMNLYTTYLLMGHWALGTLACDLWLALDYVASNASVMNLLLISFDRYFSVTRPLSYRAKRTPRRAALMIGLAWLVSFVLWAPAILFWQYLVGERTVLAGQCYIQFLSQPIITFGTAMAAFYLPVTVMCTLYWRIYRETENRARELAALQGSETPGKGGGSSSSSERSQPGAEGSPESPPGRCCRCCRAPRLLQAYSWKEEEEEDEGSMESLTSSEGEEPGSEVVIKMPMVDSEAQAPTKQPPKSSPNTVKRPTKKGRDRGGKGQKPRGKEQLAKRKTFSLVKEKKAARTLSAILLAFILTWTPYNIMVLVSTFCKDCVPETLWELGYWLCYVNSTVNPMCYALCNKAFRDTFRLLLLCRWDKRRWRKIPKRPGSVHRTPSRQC
# Sequence of UniProt Q13526 (Q13526 whole entry, looked up): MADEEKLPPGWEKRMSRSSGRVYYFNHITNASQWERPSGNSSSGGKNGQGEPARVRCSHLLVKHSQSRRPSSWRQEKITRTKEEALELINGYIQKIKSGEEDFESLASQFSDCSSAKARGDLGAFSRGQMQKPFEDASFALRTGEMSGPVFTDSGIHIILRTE
# Sequence of UniProt P83916 (P83916 whole entry, looked up): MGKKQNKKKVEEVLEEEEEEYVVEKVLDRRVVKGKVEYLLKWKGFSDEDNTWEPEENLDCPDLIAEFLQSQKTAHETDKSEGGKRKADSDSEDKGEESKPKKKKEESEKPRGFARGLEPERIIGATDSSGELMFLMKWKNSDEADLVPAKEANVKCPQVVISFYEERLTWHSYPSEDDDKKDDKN
# Sequence of UniProt P00784 (P00784 whole entry, looked up): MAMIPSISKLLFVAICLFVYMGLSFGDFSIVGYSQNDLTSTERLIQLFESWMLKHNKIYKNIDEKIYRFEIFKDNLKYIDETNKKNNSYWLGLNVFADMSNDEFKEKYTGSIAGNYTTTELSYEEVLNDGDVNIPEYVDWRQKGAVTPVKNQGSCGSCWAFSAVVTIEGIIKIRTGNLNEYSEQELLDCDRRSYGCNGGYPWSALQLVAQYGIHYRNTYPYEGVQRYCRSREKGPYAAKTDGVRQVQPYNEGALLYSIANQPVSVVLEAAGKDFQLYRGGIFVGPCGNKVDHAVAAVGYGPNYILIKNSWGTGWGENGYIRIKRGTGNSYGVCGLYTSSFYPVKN
# Sequence of UniProt Q99828 (Q99828 whole entry, looked up): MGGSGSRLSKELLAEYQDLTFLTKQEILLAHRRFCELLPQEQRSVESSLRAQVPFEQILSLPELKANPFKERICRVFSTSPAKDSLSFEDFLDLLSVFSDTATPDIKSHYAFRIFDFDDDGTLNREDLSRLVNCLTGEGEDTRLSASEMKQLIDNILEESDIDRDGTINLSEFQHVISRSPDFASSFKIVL
# Sequence of UniProt Q07343 (Q07343 whole entry, looked up): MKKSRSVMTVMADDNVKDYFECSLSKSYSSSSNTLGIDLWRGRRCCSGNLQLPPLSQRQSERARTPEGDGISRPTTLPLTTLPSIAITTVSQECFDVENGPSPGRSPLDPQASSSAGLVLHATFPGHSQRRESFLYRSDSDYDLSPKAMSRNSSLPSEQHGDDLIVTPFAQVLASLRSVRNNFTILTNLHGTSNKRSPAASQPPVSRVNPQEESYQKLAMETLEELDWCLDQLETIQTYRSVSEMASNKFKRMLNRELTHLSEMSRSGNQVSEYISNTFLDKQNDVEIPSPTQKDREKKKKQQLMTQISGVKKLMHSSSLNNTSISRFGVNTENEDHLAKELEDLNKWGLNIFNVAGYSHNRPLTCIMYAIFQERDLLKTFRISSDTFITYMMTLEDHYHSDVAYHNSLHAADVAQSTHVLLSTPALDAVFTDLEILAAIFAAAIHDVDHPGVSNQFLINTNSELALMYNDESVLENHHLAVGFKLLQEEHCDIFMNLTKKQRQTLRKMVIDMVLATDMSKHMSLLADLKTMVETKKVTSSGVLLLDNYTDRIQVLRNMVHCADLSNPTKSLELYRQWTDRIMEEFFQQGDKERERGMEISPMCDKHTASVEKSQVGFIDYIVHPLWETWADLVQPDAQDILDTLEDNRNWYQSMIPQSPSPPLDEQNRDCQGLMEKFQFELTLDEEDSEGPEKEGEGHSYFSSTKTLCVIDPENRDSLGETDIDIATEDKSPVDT
compound,measurement,setting,value
CO[C@H]1C=CO[C@@]2(C)Oc3c(C)c(O)c4c(O)c(c(C=NN5CCN(C)CC5)c(O)c4c3C2=O)NC(=O)C(C)=CC=CC(C)[C@H](O)[C@@H](C)[C@@H](O)[C@@H](C)[C@@H](OC(C)=O)[C@H]1C (stereo partly specified),Potency,[1],"inconclusive [inhibitor, partial curve, poor fit]"
same,Potency,[2],"inconclusive [inhibitor, single point]"
O=C(Nc1cc(C(=O)Nc2ccc(S(=O)(=O)O)cc2)cc(C(=O)Nc2ccc(S(=O)(=O)O)cc2)c1)Nc1cc(C(=O)Nc2ccc(S(=O)(=O)O)cc2)cc(C(=O)Nc2ccc(S(=O)(=O)O)cc2)c1,Potency,[1],"inconclusive [inhibitor, partial curve]"
same,Potency,[2],"inconclusive [inhibitor, partial curve, poor fit]"
C=CCn1c(=O)c2c(nc(-c3ccc(S(=O)(=O)O)cc3)n2C)n(C)c1=O,Potency,[3],inactive
same,Potency,[4],inactive
same,"activity change, negative = inhibition",[5],inconclusive: -11.1% [phenotype inactive]
same,Potency,[6],"inconclusive [inhibitor, full curve, poor fit]"
same,Potency,[7],inactive
same,Potency,[8],inactive
same,Potency,[9],inactive
same,Potency,[10],inactive
same,Potency,[11],inactive
same,Potency,[12],"inconclusive [inhibitor, full curve, poor fit]"
same,Potency,[13],"inconclusive [activator, partial curve, poor fit]"
same,Potency,[14],inactive
same,Potency,[15],"inconclusive [inhibitor, single point]"
same,Potency,[16],"inconclusive [activator, partial curve]"
same,Potency,[17],inactive
same,Potency,[18],"inconclusive [quencher, side channel, partial curve, poor fit]"
same,Potency,[19],"inconclusive [rising, partial curve, poor fit]"
same,Potency,[1],active: 5.32 µM
same,"activity, negative = inhibition",[20],active: -806%
same,Potency,[21],"inconclusive [inhibitor, partial curve]"
same,Potency,[22],active: 25.1 µM
C=CCNC(=O)c1cc([N+](=O)[O-])cc2c(=O)[nH]c(Nc3ccc(Cl)c(Cl)c3)nc12,Potency,[1],"inconclusive [inhibitor, full curve]"
